Measurements as given in PubChem BioAssay AID1468 (National Center for Advancing Translational Sciences (NCATS), 2008).
About 1,100 (0.39%) of roughly 280,000 compounds were called active. The inconclusive results got no clear call from the source; some entries with a clear call stand among them for comparison. Calls follow the shape of the dose curve; as a rule, active = well fitted inhibition curve with a large enough effect; inconclusive = small, poorly fitted or top-dose-only effect, or effect the other way; inactive = flat fitted curve, though single readings scatter. Where the call is inconclusive, the potency comes from a doubtful curve fit.

What follows are compounds tested against Microtubule-associated protein tau (Homo sapiens) (UniProt P10636) (assay: qHTS for Inhibitors of Tau Fibril Formation, Fluorescence Polarization). Conditions: K18 P301L tau heparin fibrillization, Alexa594 FP, 6 h; series mostly up to 57.7 µM.
In short: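 Read-out: fluorescence polarization of Alexa 594-labeled tau (0.24 uM), 555 nm excitation, 632 nm emission. Mixtures held 15 uM unlabeled K18 P301L, compound and 20 uM heparin, pH 7 acetate buffer, incubated 6 hr at 37 C.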
Also: nearly all actives have a fitted effect of over 55% in size.
Potency is read from the fitted curve at half-maximal effect; tags tell the direction and shape of the fitted curve.

Chain of UniProt P10636 (P10636 whole entry, looked up): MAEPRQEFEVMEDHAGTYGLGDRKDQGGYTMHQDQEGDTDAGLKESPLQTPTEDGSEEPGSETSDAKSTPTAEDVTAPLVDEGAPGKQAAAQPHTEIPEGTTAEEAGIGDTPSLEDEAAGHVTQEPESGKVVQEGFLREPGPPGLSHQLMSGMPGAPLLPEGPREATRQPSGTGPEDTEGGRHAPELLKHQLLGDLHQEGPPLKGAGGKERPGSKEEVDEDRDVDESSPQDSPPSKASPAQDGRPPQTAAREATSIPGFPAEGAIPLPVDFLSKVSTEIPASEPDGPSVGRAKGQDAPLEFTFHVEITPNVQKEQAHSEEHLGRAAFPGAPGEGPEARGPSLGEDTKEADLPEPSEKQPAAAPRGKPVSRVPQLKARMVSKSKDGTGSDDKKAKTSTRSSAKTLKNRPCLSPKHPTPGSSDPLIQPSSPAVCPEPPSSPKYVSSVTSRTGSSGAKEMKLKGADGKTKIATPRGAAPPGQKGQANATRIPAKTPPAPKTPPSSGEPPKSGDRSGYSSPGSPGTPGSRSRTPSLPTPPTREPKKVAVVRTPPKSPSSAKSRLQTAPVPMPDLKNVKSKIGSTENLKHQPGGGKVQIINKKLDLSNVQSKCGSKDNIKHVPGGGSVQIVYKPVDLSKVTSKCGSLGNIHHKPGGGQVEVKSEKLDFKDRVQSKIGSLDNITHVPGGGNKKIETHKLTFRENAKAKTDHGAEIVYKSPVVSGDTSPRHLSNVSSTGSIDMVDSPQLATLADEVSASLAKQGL

Potency, inconclusive:
Cc1ccc(NC(=S)NNC(=O)c2ccc(N3CCOCC3)c([N+](=O)[O-])c2)cc1C 22.4 µM [activator, single point], CC(C)CCn1c(=O)c2cccnc2n(CC(=O)Nc2ccc(F)cc2)c1=O 12.6 µM [inhibitor, partial curve], Cc1ccc(N(C)S(=O)(=O)c2ccc(C)cc2)cc1 11.2 µM [inhibitor, partial curve], O=C(Nn1c(O)c(C=C2N=c3ccccc3=N2)sc1=S)c1ccc(Cl)cc1 39.8 µM [inhibitor, single point], Cc1ccc(SCc2c(C(=O)N/N=C/c3ccccc3)nnn2-c2nonc2N)cc1 28.2 µM [inhibitor, partial curve], COc1ccccc1NC(=S)N1CCn2cccc2C1c1cccnc1 (stereo not given) 5.62 µM [inhibitor, single point], CC(Sc1nnc(N)s1)C(=O)Nc1ccc(N2CCOCC2)cc1 (stereo not given) 17.8 µM [activator, single point], Cc1cc(C)nc(/N=C(\N)Nc2ccc(-c3ccccc3)cc2)n1 39.8 µM [activator, single point], CCOC(=O)c1c(C)n(-c2ccc(C)cc2)c2c(C(C(C)=O)C(=O)O)c(Br)c(O)c(O)c12 (stereo not given) 39.8 µM [inhibitor, single point], CC1=CC2=NC(=O)/C(=C\c3cccn3CCOc3ccccc3C)C(=N)N2O1 22.4 µM [inhibitor, partial curve, poor fit], CCOc1ccc(N2CC(NC(=O)C(=O)c3c[nH]c4ccccc34)CC2=O)cc1 (stereo not given) 39.8 µM [inhibitor, single point], N#CCCN1CCN(C(=O)c2c(N)no[n+]2[O-])CC1 14.1 µM [inhibitor, partial curve]

Potency, inactive:
Cc1ccc(CNC(=O)c2sc3nc[nH]c(=O)c3c2C)cc1, Cc1cc(C)c(S(=O)(=O)Nc2ccc(-c3ccc(N4CCC(C)CC4)nn3)cc2)cc1C, CCCc1cc(C(N)=O)c(NC(=O)C2CCCO2)s1 (stereo not given), COc1ccc(C2NC(=O)N(C)C3=C2C(=O)N(c2cccc(Cl)c2)C3)cc1 (stereo not given), CC(C)NS(=O)(=O)c1ccc(CCC(=O)NCc2ccncc2)cc1, Cc1cc(C(=O)Nc2nc3c(s2)CCCC3)cs1, COc1ccc(OC)c(CNC(=O)c2cc3c(-c4ccc(OC)c(OC)c4)nn(C)c3s2)c1, COc1cc(OC)cc(-c2n[nH]c(=S)n2-c2ccc3c(c2)OCO3)c1
